We go through four substances from PMC12511354.

Protein sequences, listed by entry. Tags and fused reporters are not part of them.
UniProt Q6DIC0: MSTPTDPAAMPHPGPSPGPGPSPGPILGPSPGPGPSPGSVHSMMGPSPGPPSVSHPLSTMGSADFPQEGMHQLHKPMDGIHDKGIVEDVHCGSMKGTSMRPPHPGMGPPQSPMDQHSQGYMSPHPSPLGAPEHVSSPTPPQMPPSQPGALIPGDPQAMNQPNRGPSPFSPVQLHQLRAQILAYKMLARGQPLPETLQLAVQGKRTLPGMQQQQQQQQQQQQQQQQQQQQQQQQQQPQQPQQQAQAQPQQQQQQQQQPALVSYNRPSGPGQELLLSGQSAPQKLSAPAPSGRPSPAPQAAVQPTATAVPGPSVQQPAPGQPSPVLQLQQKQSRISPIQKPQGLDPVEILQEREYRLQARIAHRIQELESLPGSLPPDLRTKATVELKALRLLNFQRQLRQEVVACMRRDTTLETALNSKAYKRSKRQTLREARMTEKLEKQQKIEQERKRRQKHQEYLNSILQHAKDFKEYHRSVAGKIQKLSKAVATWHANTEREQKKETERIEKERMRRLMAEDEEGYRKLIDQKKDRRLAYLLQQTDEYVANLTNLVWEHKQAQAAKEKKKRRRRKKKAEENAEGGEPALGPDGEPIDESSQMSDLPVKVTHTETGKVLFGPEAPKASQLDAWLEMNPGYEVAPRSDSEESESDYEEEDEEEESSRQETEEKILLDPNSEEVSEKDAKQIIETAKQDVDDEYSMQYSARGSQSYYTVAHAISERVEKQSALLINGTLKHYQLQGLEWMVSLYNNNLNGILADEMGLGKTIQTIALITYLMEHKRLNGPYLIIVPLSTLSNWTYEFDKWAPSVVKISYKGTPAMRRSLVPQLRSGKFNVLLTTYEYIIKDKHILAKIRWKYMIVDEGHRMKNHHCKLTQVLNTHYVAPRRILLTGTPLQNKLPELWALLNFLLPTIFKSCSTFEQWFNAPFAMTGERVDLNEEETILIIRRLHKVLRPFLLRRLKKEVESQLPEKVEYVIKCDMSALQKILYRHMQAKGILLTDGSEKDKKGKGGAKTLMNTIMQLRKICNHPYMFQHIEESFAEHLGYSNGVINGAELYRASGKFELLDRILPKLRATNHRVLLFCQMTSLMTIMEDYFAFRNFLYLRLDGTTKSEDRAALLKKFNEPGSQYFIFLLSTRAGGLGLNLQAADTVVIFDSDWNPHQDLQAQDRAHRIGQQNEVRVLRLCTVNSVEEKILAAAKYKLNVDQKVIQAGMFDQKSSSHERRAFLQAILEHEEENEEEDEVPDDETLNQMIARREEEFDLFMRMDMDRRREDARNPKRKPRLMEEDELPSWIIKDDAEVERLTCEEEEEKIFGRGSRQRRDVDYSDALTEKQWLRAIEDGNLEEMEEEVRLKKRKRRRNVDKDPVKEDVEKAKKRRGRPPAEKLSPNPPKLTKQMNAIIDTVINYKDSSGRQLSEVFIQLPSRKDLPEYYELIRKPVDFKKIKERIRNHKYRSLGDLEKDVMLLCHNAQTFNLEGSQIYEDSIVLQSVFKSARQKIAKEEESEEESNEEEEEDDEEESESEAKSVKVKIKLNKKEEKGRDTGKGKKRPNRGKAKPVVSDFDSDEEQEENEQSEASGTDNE
UniProt Q3TKT4: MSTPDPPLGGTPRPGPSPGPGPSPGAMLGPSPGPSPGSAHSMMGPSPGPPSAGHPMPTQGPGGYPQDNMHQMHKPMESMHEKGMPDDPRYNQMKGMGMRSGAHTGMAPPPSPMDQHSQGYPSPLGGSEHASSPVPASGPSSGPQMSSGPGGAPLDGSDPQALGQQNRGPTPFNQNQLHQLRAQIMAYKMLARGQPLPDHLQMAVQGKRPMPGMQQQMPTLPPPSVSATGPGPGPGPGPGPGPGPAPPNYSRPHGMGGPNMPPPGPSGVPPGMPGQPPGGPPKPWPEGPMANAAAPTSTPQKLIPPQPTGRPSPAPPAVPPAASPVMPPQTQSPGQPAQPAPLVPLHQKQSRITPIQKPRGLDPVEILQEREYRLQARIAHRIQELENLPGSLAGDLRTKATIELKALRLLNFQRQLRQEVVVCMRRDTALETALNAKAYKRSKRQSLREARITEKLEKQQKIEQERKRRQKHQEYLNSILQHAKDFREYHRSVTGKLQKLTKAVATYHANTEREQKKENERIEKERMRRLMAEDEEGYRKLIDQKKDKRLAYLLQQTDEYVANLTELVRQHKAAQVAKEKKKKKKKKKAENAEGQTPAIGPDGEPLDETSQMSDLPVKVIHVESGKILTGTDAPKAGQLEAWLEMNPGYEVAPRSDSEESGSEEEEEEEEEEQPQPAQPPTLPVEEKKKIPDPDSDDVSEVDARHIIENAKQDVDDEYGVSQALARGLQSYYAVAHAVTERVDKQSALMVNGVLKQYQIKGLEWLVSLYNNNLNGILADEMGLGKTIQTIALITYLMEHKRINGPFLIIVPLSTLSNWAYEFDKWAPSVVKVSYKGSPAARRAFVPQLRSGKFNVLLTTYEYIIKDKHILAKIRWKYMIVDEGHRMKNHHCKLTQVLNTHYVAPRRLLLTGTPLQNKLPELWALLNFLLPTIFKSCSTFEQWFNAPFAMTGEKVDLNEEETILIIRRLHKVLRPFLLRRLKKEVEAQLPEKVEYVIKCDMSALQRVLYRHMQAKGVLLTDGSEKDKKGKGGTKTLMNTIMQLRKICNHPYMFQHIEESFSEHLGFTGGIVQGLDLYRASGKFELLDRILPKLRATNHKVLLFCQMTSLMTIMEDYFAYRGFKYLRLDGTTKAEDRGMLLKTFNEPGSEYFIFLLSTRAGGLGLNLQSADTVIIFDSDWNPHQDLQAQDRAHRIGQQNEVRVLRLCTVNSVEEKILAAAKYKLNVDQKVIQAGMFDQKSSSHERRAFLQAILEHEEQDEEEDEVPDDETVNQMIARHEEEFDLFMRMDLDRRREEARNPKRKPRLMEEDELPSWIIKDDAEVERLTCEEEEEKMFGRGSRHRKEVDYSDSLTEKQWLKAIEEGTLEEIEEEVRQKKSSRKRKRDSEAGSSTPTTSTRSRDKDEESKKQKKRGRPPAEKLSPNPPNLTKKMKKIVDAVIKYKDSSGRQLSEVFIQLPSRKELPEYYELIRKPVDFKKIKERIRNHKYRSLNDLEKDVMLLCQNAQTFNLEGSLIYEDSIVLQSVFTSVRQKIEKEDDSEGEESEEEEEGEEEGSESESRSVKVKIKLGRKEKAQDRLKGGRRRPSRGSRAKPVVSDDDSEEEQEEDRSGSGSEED
UniProt Q8BSQ9: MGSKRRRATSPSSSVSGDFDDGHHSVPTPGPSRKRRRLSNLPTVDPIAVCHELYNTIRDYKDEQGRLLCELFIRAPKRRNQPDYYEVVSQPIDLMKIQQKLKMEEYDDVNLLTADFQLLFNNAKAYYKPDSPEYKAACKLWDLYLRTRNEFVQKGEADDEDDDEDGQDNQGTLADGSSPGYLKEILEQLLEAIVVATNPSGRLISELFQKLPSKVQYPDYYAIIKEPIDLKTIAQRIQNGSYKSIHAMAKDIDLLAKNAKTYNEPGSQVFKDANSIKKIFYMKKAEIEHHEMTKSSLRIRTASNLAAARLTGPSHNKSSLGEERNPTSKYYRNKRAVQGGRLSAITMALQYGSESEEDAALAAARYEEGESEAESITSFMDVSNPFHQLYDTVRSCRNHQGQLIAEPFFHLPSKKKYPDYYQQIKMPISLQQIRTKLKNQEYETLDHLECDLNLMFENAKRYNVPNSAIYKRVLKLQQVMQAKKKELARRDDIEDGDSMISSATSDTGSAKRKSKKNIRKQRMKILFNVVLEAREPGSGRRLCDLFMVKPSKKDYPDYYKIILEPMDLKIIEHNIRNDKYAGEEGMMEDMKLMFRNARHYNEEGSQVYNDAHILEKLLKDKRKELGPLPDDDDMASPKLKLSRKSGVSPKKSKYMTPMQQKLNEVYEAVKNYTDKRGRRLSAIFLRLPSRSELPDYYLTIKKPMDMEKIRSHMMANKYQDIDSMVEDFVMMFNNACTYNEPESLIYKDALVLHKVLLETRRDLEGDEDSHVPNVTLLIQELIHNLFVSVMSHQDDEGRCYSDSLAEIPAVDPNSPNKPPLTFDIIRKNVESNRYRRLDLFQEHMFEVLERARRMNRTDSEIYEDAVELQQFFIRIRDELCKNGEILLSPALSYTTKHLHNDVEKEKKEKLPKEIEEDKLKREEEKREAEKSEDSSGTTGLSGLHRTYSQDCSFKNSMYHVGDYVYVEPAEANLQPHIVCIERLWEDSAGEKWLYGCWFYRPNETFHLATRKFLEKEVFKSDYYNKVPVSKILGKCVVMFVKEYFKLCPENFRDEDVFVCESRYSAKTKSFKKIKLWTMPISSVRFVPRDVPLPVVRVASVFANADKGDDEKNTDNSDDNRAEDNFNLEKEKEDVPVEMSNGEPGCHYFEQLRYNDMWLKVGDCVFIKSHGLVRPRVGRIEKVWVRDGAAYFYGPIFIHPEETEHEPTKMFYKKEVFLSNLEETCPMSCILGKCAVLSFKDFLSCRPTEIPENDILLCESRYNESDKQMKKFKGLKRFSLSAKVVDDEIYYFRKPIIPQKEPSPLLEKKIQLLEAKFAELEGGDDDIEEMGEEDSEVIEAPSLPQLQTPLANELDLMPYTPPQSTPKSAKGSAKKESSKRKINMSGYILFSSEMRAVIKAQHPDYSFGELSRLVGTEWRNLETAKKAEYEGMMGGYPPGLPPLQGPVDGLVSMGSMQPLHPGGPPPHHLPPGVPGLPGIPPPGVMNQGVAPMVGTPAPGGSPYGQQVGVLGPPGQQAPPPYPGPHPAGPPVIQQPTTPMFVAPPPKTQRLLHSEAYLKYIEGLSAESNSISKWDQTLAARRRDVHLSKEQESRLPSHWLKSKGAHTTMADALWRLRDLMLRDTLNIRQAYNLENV
UniProt Q9WTL8: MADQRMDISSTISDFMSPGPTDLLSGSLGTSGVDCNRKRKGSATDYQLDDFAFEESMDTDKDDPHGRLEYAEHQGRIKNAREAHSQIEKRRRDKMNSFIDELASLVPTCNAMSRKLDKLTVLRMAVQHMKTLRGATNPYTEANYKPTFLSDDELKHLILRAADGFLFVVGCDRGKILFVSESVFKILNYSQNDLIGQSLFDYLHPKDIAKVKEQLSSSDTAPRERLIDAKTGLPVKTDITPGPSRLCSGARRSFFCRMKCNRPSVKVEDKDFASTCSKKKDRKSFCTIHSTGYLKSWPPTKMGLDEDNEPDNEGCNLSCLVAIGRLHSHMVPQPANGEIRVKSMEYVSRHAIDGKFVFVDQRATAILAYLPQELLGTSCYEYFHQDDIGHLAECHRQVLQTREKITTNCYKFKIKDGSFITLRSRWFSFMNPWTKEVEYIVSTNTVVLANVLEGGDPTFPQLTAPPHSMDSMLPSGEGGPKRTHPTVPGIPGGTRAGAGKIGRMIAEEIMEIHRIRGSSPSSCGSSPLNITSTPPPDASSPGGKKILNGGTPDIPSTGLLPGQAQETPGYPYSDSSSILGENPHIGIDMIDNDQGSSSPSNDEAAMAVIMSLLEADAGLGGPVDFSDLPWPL

Test [1] addresses BRM (mouse (endogenous in liver)) (UniProt Q6DIC0). In words: co-IP; native BRM IP from MNase-digested liver nuclear extract of FH-H3.3A mice at CT8 and CT20 and of FH-H3.3A;PerKO mice; IgG as negative control; immunoblots.
Test [2] deals with BRG1 (mouse (endogenous in liver)) (UniProt Q3TKT4). In words: co-IP; native BRG1 IP from MNase-digested liver nuclear extract of FH-H3.3A mice at CT8 and CT20; IgG as negative control; immunoblots.
Test [3] concerns the target PBRM1 (mouse (endogenous in liver)) (UniProt Q8BSQ9). In words: co-IP; native PBRM1 IP from MNase-digested liver nuclear extract of wild-type (CT0-CT20) or FH-H3.3A (CT8, CT20) mice; isotype-matched IgG as negative control; immunoblots. (In western blotting, separated proteins are transferred to a membrane and probed.)
For test [4] the target is unchanged. In words: co-IP; native PBRM1 IP from MNase-digested liver nuclear extract of FH-H3.3A;PerKO mice; immunoblots.
Test [5] concerns the target BRG1 (mouse (endogenous in liver)) (UniProt Q3TKT4). In words: co-IP; native BRG1 IP from MNase-digested liver nuclear extract of FH-H3.3A;PerKO mice; immunoblots.
The target of test [6] is PBRM1 (mouse (endogenous in liver)) (UniProt Q8BSQ9). Briefly: co-IP; native PBRM1 IP from MNase-digested liver nuclear extract, livers collected at night (CT20); immunoblots.

These are yes or no findings as the source states them, for the method shown. Binding seen in cells or lysates may run through a third protein. Some results given as binding are weak or reduced against the parent protein; the word gives no strength.

Consider ARID1B (from UniProt E9Q4N7 1-2306), for which the binding result in test [1] and in test [2] was “binds” throughout.
In the case of ARID2 (from UniProt E9Q7E2 1-1828), the binding result in test [3] was “binds”.
BMAL1 (from UniProt Q9WTL8 1-632): the binding result in test [1] is on record as “binds”; in test [2], “binds”; in test [4], “no binding (condition: in Per1-/-;Per2-/- (PerKO) livers)”; in test [5] it was “binds weakly”; in test [3], “binds”; in test [6], “no binding (condition: at night (CT20))”.
Regarding BRG1 (from UniProt Q3TKT4 1-1613), the binding entry in test [3] is on record as “binds”.
